In all, about 360,000 compounds went through this assay and about 17,000 (4.7%) were called active. The shares of active, inactive and inconclusive entries below differ from those in the screen. No stated cut-off is given here; in the data, active means activity change below about -50%; inconclusive means mostly about -30% to -49%; inactive means weaker than that.
Assay: qHTS for Inhibitors of Inflammasome Signaling: IL-1-beta AlphaLISA Primary Screen
Settings: THP-1 LPS/ATP IL-1B secretion, 16 h; at 57.5 µM, hits give low values
Procedure, shortened: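 Secreted IL-1B measured by AlphaLISA bead assay after 16 h compound exposure of THP-1 cells; compounds (final up to 57.5 uM) added 1 h before LPS (250 ng/mL) and ATP (1.25 mM) stimulation; lower signal means less secretion.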
For `COc1ccc(OC)c2sc(NC(=O)C3COc4ccccc4O3)nc12` (stereo unspecified), the activity change was inconclusive: -42.5%. In the case of `COc1ccc([C@H]2CC(=O)C=C(c3cc4ccccc4s3)C2)cc1OC`, the activity change was inconclusive: -41.7%. For `COc1ccc(-c2cc(C(=O)Nc3sc4c(c3C#N)CCCC4)c3ccccc3n2)cc1`, the activity change was inactive: -6.87%. With `Cc1ccc(S(=O)(=O)Nc2ccc(N3CCOCC3)cc2)cc1` the activity change was inactive: 11.7%. For `CCC1CCCCN1CCCNC(=O)c1ccc(/C=C2/Sc3ccccc3NC2=O)cc1` (stereo unspecified), the activity change was inactive: -1.54%. With `O=C(/C=C/c1ccc(OCc2c(F)cccc2Cl)cc1)N1CCOCC1` the activity change was inconclusive: -41%. For `CC(C)C[C@H]1CN([C@@H](Cc2ccccc2)CN2CCC[C@H]2CN2C(=O)C(=O)NC[C@@H]2Cc2ccc(O)cc2)C(=O)C(=O)N1CC1CCCCC1`, the activity change was active: -94.1%. With `Cc1cccc(-c2nc(CS(=O)CC(=O)NC(C)CCc3ccccc3)c(C)o2)c1` (stereo unspecified) the activity change was inconclusive: -47.8%. In the case of `COc1ccc(CN2CC(=O)N(c3ccc(Cl)cc3)C2=S)cc1OC`, the activity change was inconclusive: -47.6%. With `Cc1nc(COc2cccc(Cl)c2)sc1C(=O)/C=C/N(C)C` the activity change was inconclusive: -31.7%. In the case of `Cc1ccc2cc(C#N)c(N3CCCN(C(=O)C4CCCO4)CC3)nc2c1C` (stereo unspecified), the activity change was inconclusive: -39.3%. In the case of `O=C(/C=C/c1ccccc1)c1ccc2ccccc2c1`, the activity change was inconclusive: -45.6%. In the case of `CCN(Cc1ccccc1)S(=O)(=O)c1ccc(C(=O)N(CCCN(C)C)c2nc3c(F)cccc3s2)cc1`, the activity change was active: -76.8%. In the case of `C/C(=N\NC(=O)CCc1c[nH]c2ccccc12)c1cccc([N+](=O)[O-])c1`, the activity change was inconclusive: -39.7%. In the case of `CCOc1ccc(N2CC(C(=O)N/N=C/c3sccc3C)CC2=O)cc1` (stereo unspecified), the activity change was inconclusive: -32.9%. In the case of `Cc1ccc(CC(=O)N2CCC(c3nc4c(nnn4Cc4ccccc4)c(=O)[nH]3)CC2)cc1`, the activity change was inconclusive: -32.1%. In the case of `COc1ccc(-c2nn(-c3ccccc3)cc2/C=C/C(=O)NCCCn2ccnc2)cc1OC`, the activity change was inconclusive: -44.8%. With `O=C(NC(c1ccccc1)c1ccsc1)C1CCN(CCOc2ccc(Cl)cc2Cl)CC1` (stereo unspecified) the activity change was active: -68%. With `COc1cc(F)c(C2=CC(=O)C[C@H](c3ccc4c(c3)OCO4)C2)cc1F` the activity change was inactive: -25.5%. In the case of `O=C(NC(=S)Nc1cccc([N+](=O)[O-])c1)c1ccco1`, the activity change was inactive: 15%. With `O=C(COc1ccc(F)cc1)Nc1c(C(=O)N2CCC(N3CCCCC3)CC2)oc2ccccc12` the activity change was inconclusive: -46.9%. With `Cc1ccccc1C(=O)N1CC(=O)Nc2ccc(F)cc2C1c1ccccc1` (stereo unspecified) the activity change was inactive: 30.6%. In the case of `O=c1cc(NS(=O)(=O)c2ccccc2)nc(SCc2c(Cl)cccc2Cl)[nH]1`, the activity change was inactive: -4.53%. For `O=S(=O)(CCSc1nc2ccccc2s1)c1nc2ccccc2s1`, the activity change was active: -100%. With `Cc1ccc(C(=O)Nc2ccccc2-c2ccccc2)cc1S(=O)(=O)Nc1cccc(C)c1C` the activity change was inconclusive: -47.2%. With `CCn1cc(C(=O)NCc2ccco2)c(=O)c2cc(F)c(N3CCN(C(=O)c4ccco4)CC3)cc21` the activity change was inconclusive: -32.6%. For `CC(C)COC(=O)NC1c2ccccc2Oc2ccccc21`, the activity change was inactive: 8.59%. With `CCc1nc2c(OCCC3CCCCC3)cccn2c1N(C)C(=O)CC(C)C` the activity change was inconclusive: -34%. In the case of `O=c1[nH]c(C2CCN(S(=O)(=O)c3ccc(S(=O)(=O)NC4CC4)cc3)CC2)nc2c1nnn2Cc1ccccc1`, the activity change was inconclusive: -34.3%. With `COc1cc(/C=N/Nc2ncnc3sc4c(c23)CCC4)ccc1O` the activity change was inactive: -26.6%. In the case of `Cc1ccccc1N(C(=O)Cn1nnc(-c2ccc(F)cc2)n1)C(C(=O)NC(C)(C)C)c1ccncc1` (stereo unspecified), the activity change was active: -57.1%. With `O=C(COc1cccc(NC(=O)c2cccc([N+](=O)[O-])c2)c1)c1ccc(F)cc1` the activity change was inconclusive: -43.3%. In the case of `CCC1NC(=O)c2cc3ccccc3cc2-n2c1nc1ccc(F)cc1c2=O` (stereo unspecified), the activity change was inactive: -17.3%. With `O=C(c1ccc(-c2nnc(Nc3cccc(Cl)c3)c3ccccc23)cc1)N1C[C@H]2C[C@H](C1)c1cccc(=O)n1C2` the activity change was inconclusive: -39.3%. With `Nc1ccc(C(=O)N2CCN(S(=O)(=O)c3ccc(Cl)s3)CC2)cc1[N+](=O)[O-]` the activity change was inactive: -4.04%. With `COC(=O)c1ccc(C(=O)OC)c(NC(=O)CSc2ccccn2)c1` the activity change was inactive: 35.2%. With `Oc1ccc(C[C@H]2CNC(=S)N2C[C@H]2CCCN2C[C@H](Cc2ccccc2)N2C[C@H](Cc3ccc(O)cc3)N(CCc3ccccc3)C2=S)cc1` the activity change was inconclusive: -34.6%. In the case of `COc1ccc(-c2cn[nH]c2-c2ccc(OCc3ccc([N+](=O)[O-])cc3)cc2O)cc1OC`, the activity change was inconclusive: -44.9%. With `CCN(CC)CCCC(C)NC(=O)c1ccc(C(F)(F)F)cc1` (stereo unspecified) the activity change was active: -50.1%. For `COC(=O)c1cccc(CC2(C)C(=O)Nc3ccc(OC(F)(F)F)cc32)c1` (stereo unspecified), the activity change was inactive: 11.5%. With `N#C/C(=N\Nc1ccc([N+](=O)[O-])cc1)C(N)=S` the activity change was active: -65.9%. With `Clc1ccc(C[n+]2cc(-c3ccccc3)n3c2CCC3)cc1` the activity change was inconclusive: -47%. With `COc1ccc(NS(=O)(=O)c2ccc3nc(COc4ccc(C#N)cc4)[nH]c3c2)cc1` the activity change was inconclusive: -34.1%. In the case of `CCOC(=O)c1c(C)[nH]c(C(=O)COC(=O)c2cc(C)oc2C)c1C`, the activity change was inconclusive: -34.4%. For `NS(=O)(=O)c1ccc(CCNC(=O)c2ccc(Cl)c(S(=O)(=O)NCc3ccco3)c2)cc1`, the activity change was inactive: 23.8%. For `N#C/C(=C/c1ccc(-c2cc([N+](=O)[O-])ccc2Cl)o1)C(N)=O`, the activity change was inconclusive: -34.5%. With `O=C(Nc1ccc(N2CCN(C(=O)c3ccco3)CC2)cc1)c1cc(Br)ccc1Cl` the activity change was inconclusive: -31.4%. For `COc1cc(C(=O)N=c2sc3c(C)ccc(OC)c3n2C)cc(OC)c1OC`, the activity change was inactive: 42.9%. In the case of `O=C(O)c1c[nH]c2nccnc12`, the activity change was inconclusive: -31.4%. For `CCN(CC)C(=O)C1=C(C)N(CCC2=CCCCC2)C(=O)C(CC(=O)NCc2cccs2)C1` (stereo unspecified), the activity change was inconclusive: -35.3%. With `CN(c1ccccc1)S(=O)(=O)c1cc(C(=O)Nc2ccccc2N2CCOCC2)ccc1Cl` the activity change was inconclusive: -36.4%.

Reference: PubChem BioAssay AID743279 (National Center for Advancing Translational Sciences (NCATS), 2014)
On the % scale 0 is the no-effect control and ±100 the full control effect.
